# Data published in the supplement of paper PMC8728848.
# The list shows a part of the results.
# Columns and labels:
# Assay in all cases: glycan array binding signal (z-score within array); higher = stronger binding
# Details in all cases: glycan notation: IUPAC condensed, linker removed
# Kdn(a2-3)Gal(b1-4)Glc = target: Kdn(a2-3)Gal(b1-4)Glc
# Summary of the method: (§1)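 The binding signal is a Z-score computed within each array and averaged over linkers. Arrays of the same protein sequence at different concentrations or buffers were also averaged together. Data originate from 3228 arrays in the Consortium for Functional Glycomics database, kept only where the protein sequence was available.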
# Kdn(a2-3)Gal(b1-4)GlcNAc = target: Kdn(a2-3)Gal(b1-4)GlcNAc
# Summary of the method: as §1
# [1] = target: Kdn(a2-3)Gal(b1-4)[Fuc(a1-3)]GlcNAc
# Summary of the method: as §1
# Kdn(a2-6)Gal(b1-4)GlcNAc = target: Kdn(a2-6)Gal(b1-4)GlcNAc
# Summary of the method: as §1
# [2] = target: Man(a1-2)Man(a1-2)Man(a1-3)Man
# Summary of the method: as §1
# [3] = target: Man(a1-2)Man(a1-2)Man(a1-6)[Man(a1-3)]Man
# Summary of the method: as §1
# Man(a1-2)Man(a1-3)Man = target: Man(a1-2)Man(a1-3)Man
# Summary of the method: as §1
# [4] = target: Man(a1-2)Man(a1-3)[Man(a1-2)Man(a1-6)]Man
# Summary of the method: as §1
# [5] = target: Man(a1-2)Man(a1-3)[Man(a1-2)Man(a1-6)]Man(a1-6)[Man(a1-2)Man(a1-2)Man(a1-3)]Man
# Summary of the method: as §1
# [6] = target: Man(a1-2)Man(a1-3)[Man(a1-2)Man(a1-6)]Man(a1-6)[Man(a1-2)Man(a1-2)Man(a1-3)]Man(b1-4)GlcNAc(b1-4)GlcNAc
# Summary of the method: as §1
# [7] = target: Man(a1-2)Man(a1-3)[Man(a1-6)]Man(a1-6)[Man(a1-2)Man(a1-3)]Man(b1-4)GlcNAc(b1-4)GlcNAc
# Summary of the method: as §1
# [8] = target: Man(a1-2)Man(a1-6)[Man(a1-3)]Man(a1-6)[Man(a1-2)Man(a1-2)Man(a1-3)]Man
# Summary of the method: as §1
# [9] = target: Man(a1-2)Man(a1-6)[Man(a1-3)]Man(a1-6)[Man(a1-2)Man(a1-2)Man(a1-3)]Man(b1-4)GlcNAc(b1-4)GlcNAc
# Summary of the method: as §1
# Man(a1-3)[Man(a1-6)]Man = target: Man(a1-3)[Man(a1-6)]Man
# Summary of the method: as §1
# [10] = target: Man(a1-3)[Man(a1-6)]Man(a1-6)[Man(a1-2)Man(a1-3)]Man(b1-4)GlcNAc(b1-4)GlcNAc
# Summary of the method: as §1
# [11] = target: Man(a1-3)[Man(a1-6)]Man(a1-6)[Man(a1-3)]Man
# Summary of the method: as §1
# [12] = target: Man(a1-3)[Man(a1-6)]Man(a1-6)[Man(a1-3)]Man(b1-4)GlcNAc(b1-4)GlcNAc
# Summary of the method: as §1
# [13] = target: Man(a1-3)[Man(a1-6)]Man(b1-4)GlcNAc(b1-4)GlcNAc
# Summary of the method: as §1
# [14] = target: Man(a1-3)[Man(a1-6)]Man(b1-4)GlcNAc(b1-4)[Fuc(a1-6)]GlcNAc
# Summary of the method: as §1
# Man(a1-6)Man = target: Man(a1-6)Man
# Summary of the method: as §1
# Man(b1-4)GlcNAc = target: Man(b1-4)GlcNAc
# Summary of the method: as §1
# MurNAc(b1-4)GlcNAc = target: MurNAc(b1-4)GlcNAc
# Summary of the method: as §1
# Neu5Ac(a2-3)Gal = target: Neu5Ac(a2-3)Gal
# Summary of the method: as §1
# [15] = target: Neu5Ac(a2-3)Gal(b1-3)GalNAc
# Summary of the method: as §1
# [16] = target: Neu5Ac(a2-3)Gal(b1-3)GalNAc(b1-3)Gal(a1-4)Gal(b1-4)Glc
# Summary of the method: as §1
# [17] = target: Neu5Ac(a2-3)Gal(b1-3)GalNAc(b1-4)[Neu5Ac(a2-3)]Gal(b1-4)Glc
# Summary of the method: as §1
# [18] = target: Neu5Ac(a2-3)Gal(b1-3)GalNAc(b1-4)[Neu5Ac(a2-8)Neu5Ac(a2-3)]Gal(b1-4)Glc
# Summary of the method: as §1
# [19] = target: Neu5Ac(a2-3)Gal(b1-3)GalNAc6S
# Summary of the method: as §1
# [20] = target: Neu5Ac(a2-3)Gal(b1-3)GlcNAc
# Summary of the method: as §1
# [21] = target: Neu5Ac(a2-3)Gal(b1-3)GlcNAc(b1-2)Man
# Summary of the method: as §1
# [22] = target: Neu5Ac(a2-3)Gal(b1-3)GlcNAc(b1-2)Man(a1-3)[GlcNAc(b1-4)][Neu5Ac(a2-3)Gal(b1-3)GlcNAc(b1-2)Man(a1-6)]Man(b1-4)GlcNAc(b1-4)GlcNAc
# Summary of the method: as §1
# [23] = target: Neu5Ac(a2-3)Gal(b1-3)GlcNAc(b1-2)Man(a1-3)[Neu5Ac(a2-3)Gal(b1-3)GlcNAc(b1-2)Man(a1-6)]Man(b1-4)GlcNAc(b1-4)GlcNAc
# Summary of the method: as §1
# [24] = target: Neu5Ac(a2-3)Gal(b1-3)GlcNAc(b1-3)Gal(b1-3)GlcNAc
# Summary of the method: as §1
# [25] = target: Neu5Ac(a2-3)Gal(b1-3)GlcNAc(b1-3)Gal(b1-4)GlcNAc
# Summary of the method: as §1
# [26] = target: Neu5Ac(a2-3)Gal(b1-3)GlcNAc(b1-3)GalNAc
# Summary of the method: as §1
# [27] = target: Neu5Ac(a2-3)Gal(b1-3)GlcNAc(b1-4)Gal(b1-4)Glc
# Summary of the method: as §1
# [28] = target: Neu5Ac(a2-3)Gal(b1-3)GlcNAc(b1-6)GalNAc
# Summary of the method: as §1
# [29] = target: Neu5Ac(a2-3)Gal(b1-3)GlcNAc6S
# Summary of the method: as §1
binder,measurement,setting,value
PX14343H-pdi-506-26-506 (Parabacteroides distasonis) (protein) QPTGTMTTDSKLTSKESALALTNSAYLKNTVFNKMTPGWGCNTILLLEYMTGKATSENSQSNYKDFQDLLVSDRSLYIEDWWQDCYAGIANCNLALQKLGEFENLDASLVNGYMAEVKFMRALYYFYLVRIFGDVPKITTVQSELGELQVSRAPVKEIYDEIIIPDLLEAEQSDLAFSDHTGRVSMGAVKALLADVYLTYAGYPLQGGKSYYAESAKRSLEVIKSNEYTLFTDYESLRLPSQNNKGEFIYQVQFSLNKRHNESVRIFLPSRSGISAYDLEYGSLIPTKEFVESFEKGDKRTEEKQYFFTNYKGHPSKFSPGAAELEFMDLNGYYIYKFFDQVAVDNTAKSDLNWSVYRYTDVLLMYAEAQVNADGTPNQQSIDIVNQIRGRAGLAPFKQTNASAFLEEVWDQRYFDLCYENKMWFDMLRTRKIRDDKSGEYVDFIGYKTNWGKVYTETQLLFPIPLSERQANPNLTQNQGY,glycan array binding signal (z-score),Kdn(a2-3)Gal(b1-4)Glc,-0.024
same,glycan array binding signal (z-score),Kdn(a2-3)Gal(b1-4)GlcNAc,-0.438
same,glycan array binding signal (z-score),[1],-0.169
same,glycan array binding signal (z-score),Kdn(a2-6)Gal(b1-4)GlcNAc,-0.278
same,glycan array binding signal (z-score),[2],-0.281
same,glycan array binding signal (z-score),[3],-0.422
same,glycan array binding signal (z-score),Man(a1-2)Man(a1-3)Man,-0.483
same,glycan array binding signal (z-score),[4],-0.49
same,glycan array binding signal (z-score),[5],-0.4
same,glycan array binding signal (z-score),[6],-0.329
same,glycan array binding signal (z-score),[7],1.22
same,glycan array binding signal (z-score),[8],-0.339
same,glycan array binding signal (z-score),[9],-0.277
same,glycan array binding signal (z-score),Man(a1-3)[Man(a1-6)]Man,-0.474
same,glycan array binding signal (z-score),[10],0.684
same,glycan array binding signal (z-score),[11],-0.188
same,glycan array binding signal (z-score),[12],-0.113
same,glycan array binding signal (z-score),[13],-0.378
same,glycan array binding signal (z-score),[14],-0.351
same,glycan array binding signal (z-score),Man(a1-6)Man,-0.119
same,glycan array binding signal (z-score),Man(b1-4)GlcNAc,-0.406
same,glycan array binding signal (z-score),MurNAc(b1-4)GlcNAc,-0.163
same,glycan array binding signal (z-score),Neu5Ac(a2-3)Gal,-0.52
same,glycan array binding signal (z-score),[15],-0.258
same,glycan array binding signal (z-score),[16],-0.14
same,glycan array binding signal (z-score),[17],-0.258
same,glycan array binding signal (z-score),[18],-0.215
same,glycan array binding signal (z-score),[19],-0.294
same,glycan array binding signal (z-score),[20],-0.338
same,glycan array binding signal (z-score),[21],-0.297
same,glycan array binding signal (z-score),[22],-0.391
same,glycan array binding signal (z-score),[23],-0.308
same,glycan array binding signal (z-score),[24],-0.485
same,glycan array binding signal (z-score),[25],-0.464
same,glycan array binding signal (z-score),[26],-0.443
same,glycan array binding signal (z-score),[27],-0.388
same,glycan array binding signal (z-score),[28],-0.427
same,glycan array binding signal (z-score),[29],-0.488
